# Source: the supplement of paper PMC8728848
# The other results are listed elsewhere or left out.
# B1: Epa1 (Candida glabrata) (protein)
# chain: MGSSHHHHHHSSGLVPRGSHMTSSNDISLASKDPTTFPLGCSPDITTPKKGLSMELYSYDFRKKGSYPCWDAAYLDPNYPRTGYKSHRLLAKVDGVTGNINFYYHATKGCTPQLGHLPASYNYPKPLTMTNFTMLLYGYFRPKVTGFHTFTISADDLLFVNFGAGNAFDCCRRDSSADHFGNYQAYAIWGSKTAKDELTVHLDAGVYYPIRLFYNNREYDGALSFTFKTESNENTVSDFSEYFFSLDDTEEGCPGLISYD
# Key:
# Experiment in all cases: glycan array binding signal (z-score within array); higher = stronger binding
# Details in all cases: glycan notation: IUPAC condensed, linker removed
# [1] = molecular target: Neu5Ac(a2-6)Gal(b1-4)GlcNAc(b1-2)Man(a1-3)[GlcNAc(b1-4)][Neu5Ac(a2-6)Gal(b1-4)GlcNAc(b1-2)Man(a1-6)]Man(b1-4)GlcNAc(b1-4)GlcNAc
# Outline: (§1)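 The Consortium for Functional Glycomics database supplied 3228 glycan arrays, of which those lacking an available protein sequence were dropped. The binding signal, a within-array Z-score, was averaged across arrays of the same protein sequence and across linkers. Negative scores can be read as non-binding.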
# [2] = molecular target: Neu5Ac(a2-6)Gal(b1-4)GlcNAc(b1-2)Man(a1-3)[Man(a1-6)]Man(b1-4)GlcNAc(b1-4)GlcNAc
# Outline: as §1
# [3] = molecular target: Neu5Ac(a2-6)Gal(b1-4)GlcNAc(b1-2)Man(a1-3)[Neu5Ac(a2-3)Gal(b1-4)GlcNAc(b1-2)Man(a1-6)]Man(b1-4)GlcNAc(b1-4)GlcNAc
# Outline: as §1
# [4] = molecular target: Neu5Ac(a2-6)Gal(b1-4)GlcNAc(b1-2)Man(a1-3)[Neu5Ac(a2-6)Gal(b1-4)GlcNAc(b1-2)Man(a1-6)]Man(b1-4)GlcNAc(b1-4)GlcNAc
# Outline: as §1
# [5] = molecular target: Neu5Ac(a2-6)Gal(b1-4)GlcNAc(b1-2)Man(a1-3)[Neu5Ac(a2-6)Gal(b1-4)GlcNAc(b1-2)Man(a1-6)]Man(b1-4)GlcNAc(b1-4)[Fuc(a1-6)]GlcNAc
# Outline: as §1
# [6] = molecular target: Neu5Ac(a2-6)Gal(b1-4)GlcNAc(b1-2)Man(a1-6)Man(b1-4)GlcNAc(b1-4)GlcNAc
# Outline: as §1
# [7] = molecular target: Neu5Ac(a2-6)Gal(b1-4)GlcNAc(b1-2)Man(a1-6)[Gal(b1-4)GlcNAc(b1-2)Man(a1-3)]Man(b1-4)GlcNAc(b1-4)GlcNAc
# Outline: as §1
# [8] = molecular target: Neu5Ac(a2-6)Gal(b1-4)GlcNAc(b1-2)Man(a1-6)[GlcNAc(b1-2)Man(a1-3)]Man(b1-4)GlcNAc(b1-4)GlcNAc
# Outline: as §1
# [9] = molecular target: Neu5Ac(a2-6)Gal(b1-4)GlcNAc(b1-2)Man(a1-6)[Man(a1-3)]Man(b1-4)GlcNAc(b1-4)GlcNAc
# Outline: as §1
# [10] = molecular target: Neu5Ac(a2-6)Gal(b1-4)GlcNAc(b1-2)[Neu5Ac(a2-6)Gal(b1-4)GlcNAc(b1-4)]Man(a1-3)[GlcNAc(b1-4)][Neu5Ac(a2-6)Gal(b1-4)GlcNAc(b1-2)[Neu5Ac(a2-6)Gal(b1-4)GlcNAc(b1-6)]Man(a1-6)]Man(b1-4)GlcNAc(b1-4)GlcNAc
# Outline: as §1
# [11] = molecular target: Neu5Ac(a2-6)Gal(b1-4)GlcNAc(b1-2)[Neu5Ac(a2-6)Gal(b1-4)GlcNAc(b1-4)]Man(a1-3)[GlcNAc(b1-4)][Neu5Ac(a2-6)Gal(b1-4)GlcNAc(b1-4)Man(a1-6)]Man(b1-4)GlcNAc(b1-4)GlcNAc
# Outline: as §1
# [12] = molecular target: Neu5Ac(a2-6)Gal(b1-4)GlcNAc(b1-2)[Neu5Ac(a2-6)Gal(b1-4)GlcNAc(b1-6)]Man(a1-6)[Neu5Ac(a2-6)Gal(b1-4)GlcNAc(b1-2)Man(a1-3)][GlcNAc(b1-4)]Man(b1-4)GlcNAc(b1-4)GlcNAc
# Outline: as §1
# [13] = molecular target: Neu5Ac(a2-6)Gal(b1-4)GlcNAc(b1-3)Gal(b1-3)GlcNAc
# Outline: as §1
# [14] = molecular target: Neu5Ac(a2-6)Gal(b1-4)GlcNAc(b1-3)Gal(b1-4)GlcNAc
# Outline: as §1
# [15] = molecular target: Neu5Ac(a2-6)Gal(b1-4)GlcNAc(b1-3)Gal(b1-4)GlcNAc(b1-2)Man(a1-3)[Neu5Ac(a2-6)Gal(b1-4)GlcNAc(b1-3)Gal(b1-4)GlcNAc(b1-2)Man(a1-6)]GalNAc
# Outline: as §1
# [16] = molecular target: Neu5Ac(a2-6)Gal(b1-4)GlcNAc(b1-3)Gal(b1-4)GlcNAc(b1-3)Gal(b1-4)GlcNAc
# Outline: as §1
# [17] = molecular target: Neu5Ac(a2-6)Gal(b1-4)GlcNAc(b1-3)Gal(b1-4)GlcNAc(b1-3)Gal(b1-4)GlcNAc(b1-2)Man(a1-3)[Neu5Ac(a2-6)Gal(b1-4)GlcNAc(b1-3)Gal(b1-4)GlcNAc(b1-3)Gal(b1-4)GlcNAc(b1-2)Man(a1-6)]GalNAc
# Outline: as §1
# [18] = molecular target: Neu5Ac(a2-6)Gal(b1-4)GlcNAc(b1-3)Gal(b1-4)GlcNAc(b1-3)GalNAc
# Outline: as §1
# [19] = molecular target: Neu5Ac(a2-6)Gal(b1-4)GlcNAc(b1-3)Gal(b1-4)GlcNAc(b1-3)[Neu5Ac(a2-6)Gal(b1-4)GlcNAc(b1-3)Gal(b1-4)GlcNAc(b1-6)]GalNAc
# Outline: as §1
# [20] = molecular target: Neu5Ac(a2-6)Gal(b1-4)GlcNAc(b1-3)Gal(b1-4)GlcNAc(b1-6)[Gal(b1-3)]GalNAc
# Outline: as §1
# [21] = molecular target: Neu5Ac(a2-6)Gal(b1-4)GlcNAc(b1-3)Gal(b1-4)[Fuc(a1-3)]GlcNAc(b1-3)Gal(b1-4)[Fuc(a1-3)]GlcNAc
# Outline: as §1
# [22] = molecular target: Neu5Ac(a2-6)Gal(b1-4)GlcNAc(b1-3)GalNAc
# Outline: as §1
# [23] = molecular target: Neu5Ac(a2-6)Gal(b1-4)GlcNAc(b1-3)[Neu5Ac(a2-6)Gal(b1-4)GlcNAc(b1-6)]GalNAc
# Outline: as §1
# [24] = molecular target: Neu5Ac(a2-6)Gal(b1-4)GlcNAc(b1-6)GalNAc
# Outline: as §1
# [25] = molecular target: Neu5Ac(a2-6)Gal(b1-4)GlcNAc(b1-6)[Gal(b1-3)GlcNAc(b1-3)]Gal(b1-4)Glc
# Outline: as §1
# [26] = molecular target: Neu5Ac(a2-6)Gal(b1-4)GlcNAc(b1-6)[Gal(b1-3)]GalNAc
# Outline: as §1
# [27] = molecular target: Neu5Ac(a2-6)Gal(b1-4)GlcNAc6S
# Outline: as §1
# Neu5Ac(a2-6)GalNAc = molecular target: Neu5Ac(a2-6)GalNAc
# Outline: as §1
# [28] = molecular target: Neu5Ac(a2-6)GalNAc(b1-4)GlcNAc
# Outline: as §1
# [29] = molecular target: Neu5Ac(a2-6)GalNAc(b1-4)GlcNAc6S
# Outline: as §1
# [30] = molecular target: Neu5Ac(a2-6)GlcNAc(b1-4)GlcNAc
# Outline: as §1
binder,measurement,setting,value
B1,glycan array binding signal (z-score),[1],-0.32
same,glycan array binding signal (z-score),[2],-0.271
same,glycan array binding signal (z-score),[3],-0.332
same,glycan array binding signal (z-score),[4],-0.24
same,glycan array binding signal (z-score),[5],-0.272
same,glycan array binding signal (z-score),[6],-0.281
same,glycan array binding signal (z-score),[7],-0.14
same,glycan array binding signal (z-score),[8],-0.269
same,glycan array binding signal (z-score),[9],-0.287
same,glycan array binding signal (z-score),[10],-0.274
same,glycan array binding signal (z-score),[11],-0.284
same,glycan array binding signal (z-score),[12],-0.255
same,glycan array binding signal (z-score),[13],-0.316
same,glycan array binding signal (z-score),[14],-0.337
same,glycan array binding signal (z-score),[15],-0.197
same,glycan array binding signal (z-score),[16],-0.267
same,glycan array binding signal (z-score),[17],-0.251
same,glycan array binding signal (z-score),[18],-0.26
same,glycan array binding signal (z-score),[19],-0.219
same,glycan array binding signal (z-score),[20],0.709
same,glycan array binding signal (z-score),[21],-0.272
same,glycan array binding signal (z-score),[22],-0.224
same,glycan array binding signal (z-score),[23],-0.251
same,glycan array binding signal (z-score),[24],-0.293
same,glycan array binding signal (z-score),[25],-0.095
same,glycan array binding signal (z-score),[26],0.955
same,glycan array binding signal (z-score),[27],-0.335
same,glycan array binding signal (z-score),Neu5Ac(a2-6)GalNAc,-0.318
same,glycan array binding signal (z-score),[28],-0.361
same,glycan array binding signal (z-score),[29],-0.357
same,glycan array binding signal (z-score),[30],-0.265
